Laboratory results from the RNAGym collection of RNA variant scans (doi:10.1093/nar/gkz1192).
Read counts are not given, so values of variants with three or more changes are uncertain.

B1: CPEB3 Ribozyme (parent)
chain: UAACAGGGGGCCACAGCAGAAGCGUUCACGUCGCAGCCCCUGUCAGAUUCUGGUGAAUCUGCGAAUUCUGCUGUAUAUCUC

Variants of: B1
Test: self-cleavage, relative activity (ratio to wild type); higher = more cleavage; in vitro, sequencing
Procedure, shortened: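 For each CPEB3 ribozyme variant, relative activity is its cleaved/total read fraction divided by the unmutated ribozyme's. Barcoded error-prone PCR libraries were transcribed by T7 RNA polymerase (5 hours, 37°C) and held in DNase I for 15 min before an EDTA stop, with cleavage occurring throughout. Template-switching reverse transcription and Illumina sequencing were used to read the RNAs. A 5-read minimum applied, and results are the mean of three batches.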

| Variant | self-cleavage |
| --- | --- |
| A18U A35G U41A A64G | 0.26 |
| A18U U31C A45G U60C U72A G73A | 0.18 |
| A18U A21U U43C U67G | 0.06 |
| A18U A21U U43A U48C A56U U72C U78C | 0.08 |
| A18U A28U A57G U76C | 0.17 |
| A18U A21U U26C G33U U43A | 0.05 |
| A18G U54C U74C | 1.05 |
| A18U U25A A47G U48C A56G A65G U69A | 0.06 |
| A18U G30U U41C | 0.04 |
| A18U A65G U69A U78C | 0.57 |
| A18U C27G A56G A64U U69G U72A | 0.03 |
| A18U G70A G73A | 0.43 |
| A18G U60A U78A C79A | 0.53 |
| A18G U66A U72G | 0.14 |
| A18G U72C U80A | 1.02 |
| A18U A21C C40A U43G A56U U60C A65G | 0.04 |
| A18U U26C U51C U69C | 0.08 |
| A18U C40U U58A U69C | 0.05 |
| A18U U31C U41C A64U U67A A75U | 0.12 |
| A18U A47U U67C | 0.04 |
| A18G U54A U78C | 0.99 |
| A18U U31A C71G | 0.11 |
| A18U A35G U43C A57U U67G | 0.05 |
| A18U C59U A64U U72C U80C | 0.18 |

| Variant | self-cleavage |
| --- | --- |
| A18G U80C C81U | 1.2 |
| A18U G55A U78A | 0.25 |
| A18U A20U U41C A57C | 0.19 |
| A18U C23U U26C G36C U69C | 0.06 |
| A18U U31A A35G G52C U58C U67C A77G | 0.49 |
| A18U A35G C37A U41C G61A | 0.24 |
| A18U A56G U58C A65G U67C | 0.2 |
| A18U C34A A65G | 0.17 |
| A18U A20G A21G U58C C68A | 0.09 |
| A18U C62U U67C | 0.15 |
| A18U A20G A35U U41C U43C U48C | 0.08 |
| A18U C32U U43C U74C | 0.13 |
| A18G U58A U69C U78A | 0.66 |
| A18U A21G A35G A64G | 0.42 |
| A18U A56G U58C C62U A65U A75C | 0.04 |
| A18G U58A U78C | 0.2 |
| A18U A28U A57G G63A A64U C79U | 0.09 |
| A18U C37U G63C U66C U69C A77U | 0.13 |
| A18G U51C A64U A65G U67A C81A | 0.36 |
| A18U A35U A45G | 0.37 |
| A18U A35U A45U | 0.16 |
| A18U A28G C38U U43A A57G | 0.36 |
| A18U A35G U43A A57G | 0.96 |
| A18U A28G U41C U48C A56G | 0.04 |

| Variant | self-cleavage |
| --- | --- |
| A18G U60C U78A | 0.27 |
| A18G U72C U78C | 0.83 |
| A18U U31C A45U | 0.23 |
| A18G U60C U69A | 0.21 |
| A18U G24A U25C A77G | 0.03 |
| A18U C44U U76C | 0.64 |
| A18U A28U C38U A45G A64U U78C | 0.05 |
| A18U A47G U54C U58C C71A | 0.17 |
| A18G U72A A77G | 0.15 |
| A18U U31C A64G | 0.19 |
| A18G U54C A57G | 0.3 |
| A18U A35G G52A U54C U69A | 1.31 |
| A18U A65U U78C | 0.2 |
| A18U A28G A35G U48A U60A A65G | 0.07 |
| A18U U26C G30A C32U A57G | 0.06 |
| A18U U26C U74C | 0.44 |
| A18U U26C A65G U78C | 0.21 |
| A18U A28G A57C | 0.23 |
| A18G U66C U69A | 0.22 |
| A18U A28G A56U | 0.16 |
| A18U A28G A57G U67A | 0.1 |
| A18U G36U G42A U60C | 0.06 |
| A18U A21G U26C | 0.07 |
| A18G U54G A57U U72C | 0.16 |

| Variant | self-cleavage |
| --- | --- |
| A18U C27A A56G G70U U78C | 0.08 |
| A18U A21G U41C A56U U74A | 0.03 |
| A18U U25G C38A U66C U74A | 0.05 |
| A18U U25C U54C A64U U72C U76C | 0.09 |
| A18U A28G U67C | 0.11 |
| A18U A20G U49C A64G | 0.18 |
| A18U C44G A57G A65U | 0.19 |
| A18U G24A A56G U80C | 0.21 |
| A18U A20U A45G C62A U72C | 0.23 |
| A18U C44U U48C U54C A77U | 0.09 |
| A18U C38U U48G U49C | 0.14 |
| A18U A28C U31C U80C | 0.2 |
| A18U U25C A64G U72C A75G U80C | 0.03 |
| A18U U26A G61A U78C | 0.15 |
| A18U A21G U25C | 0.21 |
| A18U G33A G52C U54A U60C A64U U69C | 0.08 |
| A18U U26A C37G U48C U60C U69G | 0.05 |
| A18U A35G U49A U51A A57G A65G | 0.33 |
| A18U U26C U72C | 0.46 |
| A18U A21G C71A U74C U78A | 0.1 |
| A18U U25C U41C C44U A45G U69C | 0.14 |
| A18U A21G A47G U69C A75G | 0.05 |
| A18G U66A U78C | 0.39 |
| A18U G19U A45C | 0.13 |

| Variant | self-cleavage |
| --- | --- |
| A18U A21G G36A C40U | 0.21 |
| A18G U54C U58A | 0.17 |
| A18U A20U U49C | 0.39 |
| A18U A28G G30A U72C | 0.08 |
| A18U U25C U54C G55A | 0.06 |
| A18U U25C A35G A45G A57G | 0.04 |
| A18G U54C U69A U76C C81A | 0.91 |
| A18U U31C C44U U60C | 0.06 |
| A18U U25G U41A | 0.23 |
| A18U U25C G52A A64U | 0.11 |
| A18U G52A U69A | 1.19 |
| A18U A47G A75G | 0.3 |
| A18U A77U U80A | 0.81 |
| A18U U25A C29A U54C A57U U78C | 0.04 |
| A18U C68A U74C U80C | 0.21 |
| A18U U26A A45G A65U U72C | 0.31 |
| A18U A45U U48C U72G U80A | 0.08 |
| A18U G30A U31C A45G U74C A75G | 0.22 |
| A18U U26A A35U C40U U80C | 0.08 |
| A18G U69A U72C U74A U80C | 0.26 |
| A18U A57G A64G U66C | 0.25 |
| A18U G36A A47G U48C A56G U60A | 0.07 |
| A18G U54A A64G | 0.41 |
| A18U A28G U41C U51G U72A | 0.09 |

| Variant | self-cleavage |
| --- | --- |
| A18U A47G U54A | 0.54 |
| A18U U25A U51C A64U | 0.14 |
| A18U A20G A28G U43C U76C | 0.04 |
| A18U A56G U58C A75C | 0.17 |
| A18U U26C U69G | 0.6 |
| A18U A20G C23U U58C U69C | 0.04 |
| A18U A20G U26A A45G U54C U74G | 0.07 |
| A18U A20G G22A U26A U41C U48C | 0.06 |
| A18U A35G U43C | 0.28 |
| A18U G33A U74A U80A | 0.21 |
| A18U A28G G33C U80C | 0.05 |
| A18U U26C A45U U49C U69C | 0.15 |
| A18U U25A U51A | 0.22 |
| A18U U25C U26C G36U | 0.07 |
| A18U U26C A56U G70C U72C | 0.08 |
| A18U U26A U43C A65G U74A | 0.32 |
| A18U C44A A75G | 0.1 |
| A18U A56G U69A | 1.18 |
| A18U A20U U31C | 0.21 |
| A18U A20G C40A A47G A57G | 0.05 |
| A18U G22A U31C | 0.04 |
| A18U A57G U67C U76A | 0.21 |
| A18U A21G U43A U60A | 0.1 |
| A18G U51C C59U U66C U69C | 0.17 |

| Variant | self-cleavage |
| --- | --- |
| A18U C29U U41A A47G A65U U67C | 0.07 |
| A18U A64U C81A | 0.26 |
| A18G U54A A64G U78C | 0.46 |
| A18U C32U U67A G70A | 0.1 |
| A18U C27A U58C U69A | 0.17 |
| A18G U72C U76C U80A | 0.79 |
| A18U U25C A28U C38U U51A U54C C71U | 0.05 |
| A18U C23A U26C A28G U31C G53U A64G | 0.06 |
| A18U C29U A57G A65G | 0.48 |
| A18U C39U G53C A57G U60C A65C | 0 |
| A18U U26G U54G U72C U74C | 0.23 |
| A18U U26A U51C U58A | 0.12 |
| A18U G42A U48C A64G U67C | 0.31 |
| A18G U67C U78C | 0.17 |
| A18G U51C U66C U78C | 0.31 |
| A18U A28G G33C U69G A77G U80C | 0.05 |
| A18U G33U U66C | 0.37 |
| A18U A21U A28G U43C C62A | 0.1 |
| A18U U31C U41A | 0.17 |
| A18U A47G U72G | 0.21 |
| A18U A47G U72C | 0.34 |
| A18U A20G U76A | 0.36 |
| A18U U26C A28G U48C | 0.21 |
